Out of some 420,000 compounds screened, about 64,000 (15%) were called active. Inconclusive means that the source gave no clear call. Such entries were picked first, then a sample of the others. The call rests on the fitted dose curve; in most records, active means well fitted inhibition curve with a large enough effect; inconclusive means small, poorly fitted or top-dose-only effect; inactive means flat fitted curve, though single readings scatter. Potencies of inconclusive entries are left out as doubtful fits.
experiment: qHTS for Inhibitors of human tyrosyl-DNA phosphodiesterase 1 (TDP1): qHTS in cells in absence of CPT; conditions: DT40 Tdp1-/- hTDP1 cells, no CPT, ATP luminescence, 48 h; activity change, negative = growth inhibition: at 46.2 µM (top of the series) unless noted; further: nearly all actives have a fitted effect of over 55% in size
Procedure, shortened: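 Growth of hTDP1-complemented DT40 Tdp1-knockout cells is measured by ATP luminescence after at least 48 hr compound exposure at 37 °C, with DMSO substituting for the 20 nM CPT used in the parallel screen.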
On the % scale 0 is the no-effect control and ±100 the full control effect; potency means the concentration at half of the fitted maximal effect; tags describe the fitted curve by direction and shape.

Structure (SMILES)	Potency	activity change, negative = growth inhibition
Cc1cccc(CSc2nnc([C@@H]3CCCN3C(=O)OC(C)(C)C)o2)c1	inconclusive [inhibitor, single point]	
O=C(C1CC(=O)N(c2ccc3c(c2)OCCO3)C1)N1CCN(c2cccc(C(F)(F)F)c2)CC1 (stereo unspecified)	active: 23.1 µM	
O=[N+]([O-])c1cccc(N=NNc2cccc([N+](=O)[O-])c2)c1	active: 18.4 µM	
CC(C)(C)c1ccc(C(=O)NCC(c2cccs2)S(=O)(=O)c2ccccc2)cc1 (stereo unspecified)	active: 14.6 µM	
C[C@@H]1CN([C@@H](C)CO)C(=O)CCCn2cc(nn2)CO[C@H]1CN(C)S(=O)(=O)c1ccccc1F		inactive: -21.6%
CCOC(=O)[C@H]1[C@H]2COc3ccc(C)cc3[C@@H]2N2C(=O)c3cc(Cl)ccc3NC(=O)[C@@]12C	inconclusive [inhibitor, partial curve]	
CCN(CC)c1ccc(S(=O)(=O)N2CCOCC2)cc1NC(=O)CN1C(=O)NC2(CCC(C)CC2)C1=O (stereo unspecified)		inactive: -16.9%
COc1ccc(CC(=O)NCCC2=CCCCC2)cc1		inactive: 2.13%
Cc1ccc(C)c(OCCCCn2ccnc2)c1	inconclusive [inhibitor, single point]	
NC(=O)C1CCN(c2c([N+](=O)[O-])cc(C(F)(F)F)cc2[N+](=O)[O-])CC1		inactive: -2.77%
CCc1ccc(CNC(=O)c2ccc(NC(=O)N3CC(C)Sc4ccccc43)cc2)cc1 (stereo unspecified)	active: 9.2 µM	
CC1CCCCC1NC(=O)Cn1c(=O)cnc2ccccc21 (stereo unspecified)		inactive: -4.01%
CSc1nc(N(C)NC(=O)c2cccc(C)c2)c2ccccc2n1	active: 0.0146 µM	
CC1(OC(=O)c2ccc(Cl)nc2)C(=O)C=C2C=C3CCCN3C=C2C1=O (stereo unspecified)	inconclusive [inhibitor, single point]	
Cc1cc(C)cc(C(=O)OCC(=O)NCc2cccs2)c1	inconclusive [inhibitor, single point]	
CCOc1ccc(-c2nnc3sc(COc4ccc(C)cc4)nn23)cc1		inactive: -24.4%
CCC1(C)Cc2ccccc2-c2nc(NCCCO)n(C)c(=O)c21 (stereo unspecified)	inconclusive [inhibitor, single point]	
COc1ccc(-c2ccc(CN3C(CC(C)C)C(=O)N(Cc4cn(CC5CCCCC5)nn4)CCS3(=O)=O)cc2)cn1 (stereo unspecified)	active: 18.4 µM	
CCCCCc1c(-c2ccccc2)ncn1CCc1ccccc1OC	active: 14.6 µM	
CS(=O)(=O)Nc1cccc(-c2ccc3ncnc(Nc4ccccc4)c3c2)c1	active: 20.6 µM	
CCOc1ccc(NC(=S)NN2C(C)CCCC2C)cc1 (stereo unspecified)	inconclusive [inhibitor, single point]	

— PubChem BioAssay AID686978 (National Center for Advancing Translational Sciences (NCATS), 2013)
